Assay results reported in patent US20030017550A1 (priority 2001, published 2003).
Read-outs that look alike come from different tables or passages of the source. Where no end group is shown, it is not given here.

System: human peripheral blood lymphocytes
Text: The E-rosette bioassay performed in this invention is based on the observations that the addition of optimally active thymosin preparation can increase in patients with thymus hypoplasia the percent and absolute number of peripheral blood T cells forming rosette with sheep red blood cells (Wara et al., N. Engl. J Med. 292:70, 1975), and that thymic extracts can restore the erythrocyte rosette-forming capacity of alpha-amanitin-treated lymphocytes (Sattar et al., Immunol. Lett. 27:221, 1991). In fact, the percentage of E-rosette forming cells in peripheral human blood can be a measure of the content of fully mature T-cells. In a healthy adult the normal level of E-rosettes is about 56%. For the performance of the E-rosette assay, a RNA polymerase inhibitor, alpha-amanitin, was used. […] A rosette was defined as a lymphocyte that bound three or more sheep erythrocytes. Rosettes enumerated under a microscope by counting 200 lymphocytes. The results were expressed as percent lymphocytes forming rosettes. The value of the normal level of E-rosette in the healthy adult is taken as 100% in a relative numerical scale, and after the alpha-amanitin blockage it is taken as 0%. Each data point was done in duplicate.

Molecule	E-rosette number (%) (0.19 µg/0.5 ml culture, relative scale)	E-rosette number (%) (0.38 µg/0.5 ml culture, relative scale)	E-rosette number (%) (0.75 µg/0.5 ml culture, relative scale)	E-rosette number (%) (1.5 µg/0.5 ml culture, relative scale)	E-rosette number (%) (3.0 µg/0.5 ml culture, relative scale)	E-rosette number (%) (6.0 µg/0.5 ml culture, healthy adult level = 100%, after alpha-amanitin blockage = 0%)	E-rosette number (%) (0.156 µg/0.5 ml culture, relative scale)	E-rosette number (%) (0.31 µg/0.5 ml culture, relative scale)	E-rosette number (%) (0.63 µg/0.5 ml culture, relative scale)	E-rosette number (%) (1.25 µg/0.5 ml culture, relative scale)	E-rosette number (%) (2.5 µg/0.5 ml culture, relative scale)	E-rosette number (%) (5.0 µg/0.5 ml culture, relative scale)
thymosin alpha 1 (SDAAVDTSSEITTKDLKEKKEVVEEAEN; ends and bridges not checked; UniProt P06454 2-29, looked up) [Synthetic TM-alpha1, 28 amino acid acidic thymic peptide; synthetic form used as comparator in the E-rosette assay]	34%	57%	100%	62%	52%	30%						
IFN-beta/TM-alpha1: fusion protein: human IFN-beta (amino acids 1-166) linked to human TM-alpha1 (172-199) via a linker (167-171), SEQ ID NO:11, expressed in E. coli (protein, Human) MSYNLLGFLQRSSNFQCQKLLWQLNGRLEYCLKDRMNFDIPEEIKQLQQFQKEDAALTIYEMLQNIFAIFRQDSSSTGWNETIVENLLANVYHQINHLKTVLEEKLEKEDFTRGKLMSSLHLKRYYGRILHYLKAKEYSHCAWTIVRVEILRNFYFINRLTGYLRNSGGGGSDAAVDTSSEITTKDLKEKKEVVEEAEN							21%	51%	91%	57%	43%	19%
